In PubChem BioAssay AID1508624 (National Center for Advancing Translational Sciences (NCATS), 2021):
About 120 (0.25%) of roughly 48,000 compounds were called active. Roughly 4% stayed inconclusive and do not appear here. Calls come from the whole dose curve; as a rule, active = well fitted activation curve with a large enough effect; inconclusive = small, poorly fitted or top-dose-only effect, or another doubt; inactive = no such curve, though single readings can be large or run the other way. Some of the results follow.

test: Primary qHTS for Identification of Small Molecule Activators of Huntingtin-Antisense Promoter Activity; settings: HEK293 HTT-AS promoter firefly luciferase reporter (activity 0% = vehicle and -100% = no light), 24 h; series mostly up to 57.5 µM; activity change, positive = activation: at the top concentration; note: nearly all actives have a fitted effect of over 55% in size
Summary of the method: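 Firefly luciferase readout (Dual-Glo, 10 min RT) after 24 h, 37 °C compound exposure (final up to 57.5 uM) of HEK293 reporter cells cultured 24 h beforehand; PTC124 at 50 uM final as control inhibitor; activity scaled vehicle 0%, zero RLU -100%.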

| SMILES | activity change, positive = activation |
| --- | --- |
| COc1cc(OC)cc(C(=O)Nc2ccc(-c3nc4ccccc4s3)cc2C)c1 | inactive: -10.4% |
| Cc1cc(C)n(-c2nc(C)c(C)c(=O)n2CC(=O)Nc2ccc([N+](=O)[O-])cc2)n1 | inactive: -10.9% |
| Nc1nc2c(ncn2COC(CO)CO)c(=O)[nH]1 | inactive |
| CCOC(=O)c1ccc(NC(=O)Cn2cc(C(=O)C3CC3)c3ccccc32)cc1 | inactive: -28.1% |
| C[n+]1c2cc(N)ccc2cc2ccc(N)cc21 (tested in a mixture with another compound) | inactive: -39.2% |
| COc1ccccc1CNC(=O)CCc1c(C)c2cc3c(C)c(C)oc3cc2oc1=O | inactive: 2.76% |
| COc1ccc(CCNC(=O)c2ccc3c(c2)N(Cc2ccc(F)cc2)C(=O)c2ccccc2S3(=O)=O)cc1OC | inactive: -3.96% |
| Cc1ccccc1Nc1c(-c2c(F)cccc2Cl)nc2ccc(Br)cn12 | inactive: -2.6% |
| Cc1csc(-c2nnc(Nc3ccc(Oc4ncccc4-c4ccnc(N)n4)cc3)c3ccccc23)c1 | inactive: -27.1% |
| Cc1c(C(=O)Nc2cccc(C(F)(F)F)c2)sc2nc[nH]c(=O)c12 | inactive: -10.5% |
| Cc1ccc(-n2ncc3c(NCCCN4CCOCC4)ncnc32)cc1C | inactive: -47.6% |
| CCOC(=O)c1ccc(NC(=O)CCCn2c(=O)c3cccn3c3ccccc32)cc1 | inactive: -5.46% |
| COCc1nnc(NC(=O)c2cc(OC)c(OC)c(OC)c2)s1 | inactive: 12.2% |
| Cc1ccc(NC(=O)C2CCCN(S(=O)(=O)c3c(C)n[nH]c3C)C2)c(C)c1 (centres undefined) | inactive: -13.4% |
| COc1ccc(OC)c(/C=C/c2nc3ccccc3c(=O)n2-c2ccc(F)c(Cl)c2)c1 | inactive: -6.37% |
| COc1ccc(C(=O)/C=C/c2cn(CC(O)CN3CCc4ccccc43)c3ccccc23)cc1OC (centres undefined) | inactive: -41.6% |
| CCC(C(=O)Nc1cc(C)ccc1C)n1c(=O)c(C(F)(F)F)nc2ccccc21 (centres undefined) | inactive: -9.12% |
| COc1cccc(CNS(=O)(=O)c2cnc(N)nc2)c1 | inactive: -11.9% |
| O=C(COc1ccc(F)cc1)Nc1nnc(S(=O)(=O)N2CCCC2)s1 | inactive: -5.39% |
| COc1ccc(NC(=O)c2nnn(Cc3nc(-c4cc(OC)c(OC)c(OC)c4)oc3C)c2C)cc1Cl | inactive: -14.3% |
| COc1ccccc1CNC(=O)c1ccc2[nH]c(C)c(C)c2c1 | inactive: 1.47% |
| COc1ccc(OC)c(NS(=O)(=O)c2ccc(-n3cccn3)cc2)c1 | inactive: -33.4% |

| SMILES | activity change, positive = activation |
| --- | --- |
| CCCCNC(=O)C(CC)Sc1nc2ccccc2c(=O)n1Cc1ccco1 (centres undefined) | inactive: -10.5% |
| COCCCNC(=O)Cn1c(=O)n(-c2ccc(C)c(C)c2)c(=O)c2c3c(sc21)CCCCC3 | inactive: -10.8% |
| COCCNC(=O)c1sc2ncccc2c1-n1c(C)ccc1C | inactive: 14.4% |
| CCC(C)n1c(=O)c2sccc2n2c(CCCC(=O)NCc3ccccc3Cl)nnc12 (centres undefined) | inactive: -6.36% |
| Cc1cccc(N(C)S(=O)(=O)c2nnc(NC(=O)c3cccs3)s2)c1 | inactive: -19.8% |
| Cc1ccc(C(=O)c2sc(Nc3ccccc3)c(S(=O)(=O)c3ccccc3)c2N)c(C)c1 | inactive: -13.9% |
| CCOC(=O)c1cccc(NC(=O)Cn2c(=O)c3cccn3c3ccccc32)c1 | inactive: -16.1% |
| Cc1cc(C)n2nc(CNC(=O)c3c(F)cccc3F)nc2n1 | inactive: -13.4% |
| NCCCCCC(=O)O | inactive |
| COCCn1c(CNC(=O)c2cccc(C)c2)nc2cccnc21 | inactive: -6.04% |
| COCCNC(=O)C1CCN(Cc2cc3ccccc3n2Cc2ccc(C)cc2)CC1 | inactive: -8.91% |
| COc1ccccc1NC(=O)C1=C(C)Nc2nc(SCc3ccccc3)nn2C1c1cccc(O)c1 (centres undefined) | inactive: -32.3% |
| c1ccc2c(CCNc3ccc(Nc4ccncc4)cc3)c[nH]c2c1 | inactive: -26.8% |
| Cc1cc(Cl)ccc1OCC(=O)N(Cc1sccc1C)C1CCS(=O)(=O)C1 (centres undefined) | inactive: -14.7% |
| CCC(=O)Nc1ccc2nc(SCCOc3ccc(C)cc3OC)sc2c1 | inactive: -11.6% |
| CC(=O)c1ccc(NC(=O)CSc2nc(-c3ccc(C)cc3)nc3c2c(=O)n(C)c(=O)n3C)cc1 | inactive: -1.16% |
| CCn1c(=O)cc(OCC(=O)N2CCN(c3ccc(C)cc3)C(C)C2)c2ccccc21 (centres undefined) | inactive: -44.6% |
| CCCOc1cccc(C(=O)N(Cc2sccc2C)C2CCS(=O)(=O)C2)c1 (centres undefined) | inactive: -19.4% |
| COc1ccc(CNC(=O)c2cnc(N(C)C)nc2)cc1 | inactive: -7.72% |
| Cc1ccc2c(c1)C(=O)[C@]1(O)CCN(c3ccccc3)C1=N2 | inactive: -0.8% |
| CC(C)OCCCNC(=O)CN1C(=O)c2cccnc2Sc2ccccc21 | inactive: -6.62% |
| O=C(Cn1cc(SCc2c(F)cccc2Cl)c2ccccc21)N1CCCCC1 | inactive: 28.8% |

| SMILES | activity change, positive = activation |
| --- | --- |
| Cn1c(=O)n(Cc2ccccc2)c(=O)c2c1nc1n2CCN1c1ccccc1 | inactive: -20.2% |
| CCN(CC)CCNC(=O)CN1N=C(c2ccc(OC)cc2)CCC1=O | inactive: -4.91% |
| COc1c(C)cnc(Cn2cnc3c(Cl)nc(N)nc32)c1C | inactive: -56.7% |
| COc1ccc2c(Oc3ccc(NC(=O)c4c(C)n(CC(C)(C)O)n(-c5ccccc5)c4=O)nc3)ccnc2c1 | inactive: -15.2% |
| Cc1ccc(-c2cn3cccnc3n2)cc1NC(=O)Nc1ccc(F)cc1 | inactive: 6.47% |
| CC(C)(C)OC(=O)N1CCC(c2c(C(=O)N3CCN(c4ccccn4)CC3)cnn2-c2ccc(F)cc2)CC1 | inactive: -14.8% |
| COc1ccc2c(c1)c(=O)c(S(=O)(=O)c1ccc(F)cc1)cn2Cc1ccccc1Cl | inactive: -1.16% |
| COc1cccc2c(C)cc3nnc(SCC(=O)Nc4ccc(C)cc4)n3c12 | inactive: -9.05% |
| COCCNC(=O)CN1C(=O)c2cccnc2Sc2ccccc21 | inactive: -10.5% |
| O=C(Cn1ncc2c1-c1ccccc1OC2)N1CCN(c2ccccc2)CC1 | inactive: -16.4% |
| O=C(c1ccc2c(c1)OCO2)c1cn(Cc2ccc(Cl)cc2)c2ccc(F)cc2c1=O | inactive: -30.2% |
| CCCCOc1ccc(C(=O)N2CCCCC2CCN2CCOCC2)cc1 (centres undefined) | inactive: -10.8% |
| CC1CCC(NC(=O)c2ccc(CS(=O)(=O)c3ccc(Cl)cc3)o2)CC1 (centres undefined) | inactive: -31.1% |
| CCN(CC)S(=O)(=O)c1ccc(C(=O)NCCSc2c(-c3ccc(F)cc3)[nH]c3ccccc23)cc1 | inactive: -35.2% |
| Cc1cc(C)c(S(=O)(=O)NCC(c2ccco2)N2CCOCC2)c(C)c1 (centres undefined) | inactive: -18.7% |
| CCc1nc2c(cnn2-c2ccc(C)cc2)c(=O)n1Cc1ccccc1 | inactive: -28.4% |
| CCOC(=O)N1CCc2c(sc3c2c(=O)n(Cc2ccccc2)c(=O)n3Cc2cccc(C)c2)C1 | inactive: -14.1% |
| CC=CC(=O)N(CC)c1ccccc1C | inactive: -39.6% |
| Cc1ccc(-c2onc(C)c2C)cc1S(=O)(=O)NCc1ccc(N(C)C)cc1 | inactive: -27.7% |
| COc1ccc(NC(=O)c2cc(C)nc3c2c(C)nn3-c2ccc(C)cc2)cc1OC | inactive: -29.8% |
